Experimental data reported in PMC4336329 (PLoS ONE, 2015).
Out of some 310,000 compounds screened, about 14,000 (4.5%) showed an effect of 50% or more. The effect is printed as a negative number. The list shows a part of the results.
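Note: peak tail current of the secondary pulse compared with the same well before compound.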

These compounds were tested against human ether-à-go-go-related gene (hERG) potassium channel (human, UniProt Q12809) (assay: primary screen, population patch clamp on CHO cells stably expressing hERG).
Chain of human ether-à-go-go-related gene (hERG) potassium channel (Q12809 whole entry, looked up): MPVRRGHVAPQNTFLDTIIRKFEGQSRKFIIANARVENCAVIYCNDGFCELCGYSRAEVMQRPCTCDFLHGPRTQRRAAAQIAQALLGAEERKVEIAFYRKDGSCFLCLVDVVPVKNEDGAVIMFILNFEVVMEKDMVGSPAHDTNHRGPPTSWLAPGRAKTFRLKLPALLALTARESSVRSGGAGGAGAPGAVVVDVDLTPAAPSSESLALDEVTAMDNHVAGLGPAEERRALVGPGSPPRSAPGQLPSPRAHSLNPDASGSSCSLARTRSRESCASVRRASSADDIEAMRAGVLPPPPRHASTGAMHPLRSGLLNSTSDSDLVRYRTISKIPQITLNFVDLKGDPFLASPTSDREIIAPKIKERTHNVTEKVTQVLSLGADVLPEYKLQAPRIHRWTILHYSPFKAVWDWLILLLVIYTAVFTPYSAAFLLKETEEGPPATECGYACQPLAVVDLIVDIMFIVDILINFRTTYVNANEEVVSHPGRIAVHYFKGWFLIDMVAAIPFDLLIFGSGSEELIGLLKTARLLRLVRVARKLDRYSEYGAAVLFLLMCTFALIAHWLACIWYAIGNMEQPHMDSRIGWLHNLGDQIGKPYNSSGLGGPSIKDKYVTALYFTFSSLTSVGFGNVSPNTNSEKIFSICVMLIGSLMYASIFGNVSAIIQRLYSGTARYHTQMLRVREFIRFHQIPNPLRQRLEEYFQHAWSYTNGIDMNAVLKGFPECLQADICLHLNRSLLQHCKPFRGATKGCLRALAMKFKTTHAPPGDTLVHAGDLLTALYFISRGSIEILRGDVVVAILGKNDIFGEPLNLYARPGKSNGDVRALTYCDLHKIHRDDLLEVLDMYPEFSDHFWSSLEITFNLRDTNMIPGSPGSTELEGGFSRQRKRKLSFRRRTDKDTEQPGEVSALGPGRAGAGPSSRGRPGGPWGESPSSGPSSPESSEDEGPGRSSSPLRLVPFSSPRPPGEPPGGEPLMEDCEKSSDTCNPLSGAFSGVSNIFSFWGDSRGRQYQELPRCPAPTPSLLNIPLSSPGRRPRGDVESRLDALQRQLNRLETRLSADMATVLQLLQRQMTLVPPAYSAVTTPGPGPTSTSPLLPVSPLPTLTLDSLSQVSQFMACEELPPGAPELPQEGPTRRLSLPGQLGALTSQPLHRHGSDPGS
`CCOC(=O)c1ccc(N2C(=O)C(CC(N)=O)N(NC(=O)c3cccc(F)c3)C2=S)cc1` (centres unmarked) was tested, and the “hERG current change (%, negative = inhibition) at 10uM” value was 11.1%.
In the case of `O=C(N/N=C/c1c(O)n(C2CC2)c(=S)[nH]c1=O)c1ccccc1Cl`, the “hERG current change (%, negative = inhibition) at 10uM” value is reported as 13%.
`O=C(CNC(=O)c1ccc2c(c1)S(=O)(=O)N=C1CCCCCN12)Nc1ccc(F)c(F)c1` was tested, and the “hERG current change (%, negative = inhibition) at 10uM” value was 4.03%.
`CS(=O)(=O)N1N=C(c2ccco2)CC1c1ccc(Cl)cc1Cl` (centres unmarked) was tested, and the “hERG current change (%, negative = inhibition) at 10uM” value was -11.2%.
For `Cc1ccc(Oc2ccccc2NC(=O)CSCC(=O)Nc2cc(C)on2)cc1`, the “hERG current change (%, negative = inhibition) at 10uM” value was -19.3%.
For `COCCNC(=O)c1onc(CSc2cc(C)cc(C)c2)c1C(=O)O`, the “hERG current change (%, negative = inhibition) at 10uM” value was 18.9%.
`O=[N+]([O-])c1ccc(-c2ccc(S(=O)(=O)NCCN3CCCC3)cc2)cc1` was tested, and the “hERG current change (%, negative = inhibition) at 10uM” value was -77.7%.
With `CN1CCN(CC#CCn2c3ccccc3c3ccccc32)CC1` the “hERG current change (%, negative = inhibition) at 10uM” value was -43.2%.
In the case of `COc1cccc(-c2cc(C(=O)N3CCc4ccccc4C3)no2)c1`, the “hERG current change (%, negative = inhibition) at 10uM” value is reported as -27%.
In the case of `Cc1nc2ccccc2c(=O)n1NC(=O)Cc1ccc(Br)cc1`, the “hERG current change (%, negative = inhibition) at 10uM” value is reported as -10.2%.
For `Cc1nnc(SCC(=O)Nc2cccc([N+](=O)[O-])c2)n1CC1CCCO1` (centres unmarked), the “hERG current change (%, negative = inhibition) at 10uM” value was -13%.
With `CN(CCOCCOc1ccc(Cl)cc1Br)Cc1ccccc1` the “hERG current change (%, negative = inhibition) at 10uM” value was -46.1%.
For `CCOC(=O)N1CCN(C(=O)C2CCN(S(=O)(=O)N(CC)CC)CC2)CC1`, the “hERG current change (%, negative = inhibition) at 10uM” value was -5.23%.
For `Cc1ccc(Nc2ccc(N3CCN(c4ccc([N+](=O)[O-])cc4)CC3)nn2)cc1`, the “hERG current change (%, negative = inhibition) at 10uM” value was 9.07%.
`COc1ccc(C(=O)OCCN2CCN(C3=NS(=O)(=O)c4ccccc43)CC2)cc1OC` was tested, and the “hERG current change (%, negative = inhibition) at 10uM” value was -32.9%.
`O=C(CN1C(=O)NC2(CCCC2)C1=O)Nc1cc(Cl)ccc1N1CCCC1` was tested, and the “hERG current change (%, negative = inhibition) at 10uM” value was -2.48%.
With `CCn1ccnc1C(O)c1cccc(OC)c1` (centres unmarked) the “hERG current change (%, negative = inhibition) at 10uM” value was 9.96%.
For `O=C1CCCC2=C1C(O)(C(F)(F)F)C(=O)N2Cc1ccccc1` (centres unmarked), the “hERG current change (%, negative = inhibition) at 10uM” value was -10.1%.
For `CCCCN1Cc2c(nc3cc(-c4ccccc4)[nH]n3c2=O)C1=O`, the “hERG current change (%, negative = inhibition) at 10uM” value was 6.51%.
`CCc1ccc(OCC(=O)Nc2ccncc2)c(Br)c1` was tested, and the “hERG current change (%, negative = inhibition) at 10uM” value was -31.2%.
With `CCC(NC(=O)c1cc(COc2cc(C)c(Cl)c(C)c2)on1)c1ccncc1` (centres unmarked) the “hERG current change (%, negative = inhibition) at 10uM” value was 2.85%.
For `Cc1cccc(C(=O)NCc2nnc(SCc3ccc(F)cc3)n2C)c1`, the “hERG current change (%, negative = inhibition) at 10uM” value was -15.1%.
With `COc1cc(/C=C/C(=O)N(Cc2ccccc2)c2ccccn2)cc(OC)c1OC` the “hERG current change (%, negative = inhibition) at 10uM” value was -23.2%.
With `COCc1cc(C)nc(SCc2ccc([N+](=O)[O-])cc2)c1C#N` the “hERG current change (%, negative = inhibition) at 10uM” value was 5.08%.
For `COc1ccc(/C=C2/C(=O)NC(=O)N(Cc3ccco3)C2=O)cc1`, the “hERG current change (%, negative = inhibition) at 10uM” value was 17.6%.
With `Cc1ccc2cc(CCNC(=O)c3ccco3)c(=O)[nH]c2c1C` the “hERG current change (%, negative = inhibition) at 10uM” value was -2.6%.
In the case of `CNC(=S)N1N=C(c2ccc(OC)cc2)CC1c1ccccc1Cl` (centres unmarked), the “hERG current change (%, negative = inhibition) at 10uM” value is reported as 1.24%.
With `Cc1cc(C)cc(OC(=O)COc2ccccc2C)c1` the “hERG current change (%, negative = inhibition) at 10uM” value was 23.8%.
`CC(=O)N1CCCC1(C(=O)O)c1ccccc1` (centres unmarked) was tested, and the “hERG current change (%, negative = inhibition) at 10uM” value was -1.16%.
With `CC(=O)c1nn(-c2cccc(Br)c2)cc1C(=O)c1ccc(Br)cc1` the “hERG current change (%, negative = inhibition) at 10uM” value was 12.7%.
For `O=S(=O)(NCC1CCCO1)c1ccc(S(=O)(=O)N(Cc2ccc(F)cc2)Cc2ccco2)cc1` (centres unmarked), the “hERG current change (%, negative = inhibition) at 10uM” value was -2.49%.
For `CCOC(=O)c1cc(-c2ccc(OC)cc2)n(CCC(=O)NC2CCN(Cc3ccccc3)CC2)c1C`, the “hERG current change (%, negative = inhibition) at 10uM” value was -65.7%.
In the case of `Cc1nc(C)c(-c2nnc(-c3ccccc3Cl)o2)cc1C(=O)NN`, the “hERG current change (%, negative = inhibition) at 10uM” value is reported as 8.32%.
`CC1CCN(c2ccc(C(=O)NCc3ccco3)cc2[N+](=O)[O-])CC1` was tested, and the “hERG current change (%, negative = inhibition) at 10uM” value was -47.1%.
`O=C(CSCc1ccccc1Cl)Nc1c[nH]c(=O)[nH]c1=O` was tested, and the “hERG current change (%, negative = inhibition) at 10uM” value was -2.89%.
`CC(C)=CCCC(C)CN1CCC(n2nccc2NC(=O)c2cccnc2)CC1` (centres unmarked) was tested, and the “hERG current change (%, negative = inhibition) at 10uM” value was -52.1%.
For `O=C(CN(c1ccc(F)cc1)S(=O)(=O)c1ccc2c(c1)OCCO2)NCc1ccncc1`, the “hERG current change (%, negative = inhibition) at 10uM” value was -30.3%.
With `CC(OC(=O)/C(C#N)=C/c1ccc(N(C)C)cc1)C(=O)N(C)c1ccccc1` (centres unmarked) the “hERG current change (%, negative = inhibition) at 10uM” value was -8.23%.
For `CCOC(=O)CNC(=O)CSc1cc(C)nc2ccc(OC)cc12`, the “hERG current change (%, negative = inhibition) at 10uM” value was 8.11%.
In the case of `CCCCNc1nc(C)c(C(C)=O)cc1C#N`, the “hERG current change (%, negative = inhibition) at 10uM” value is reported as 24.1%.
For `COc1ccc(C(=O)NC(C(=O)N2CCc3ccccc32)C(C)C)cc1` (centres unmarked), the “hERG current change (%, negative = inhibition) at 10uM” value was -0.0963%.
With `Cc1nn(-c2ccccc2)c2sc(C(=O)N(Cc3ccco3)C(C)C(=O)NC(C)(C)C)cc12` (centres unmarked) the “hERG current change (%, negative = inhibition) at 10uM” value was 2.23%.
`CCN(CC)C(=O)c1sc(NC(=O)c2ccoc2C)c(C(=O)OC)c1C` was tested, and the “hERG current change (%, negative = inhibition) at 10uM” value was 16%.
In the case of `CC(Oc1ccc(Cl)cc1)C(=O)OCC(=O)Nc1ncc(Cl)cc1Cl` (centres unmarked), the “hERG current change (%, negative = inhibition) at 10uM” value is reported as -6%.
